From US20230122503A1, “ANTI-PSMA RADIOCONJUGATES AND USES THEREOF” (Janssen Biotech, Inc., priority 2021, published 2023) come the findings set out here.

Series [1] in a line: SE HPLC of purified antibodies (% monomer post protein A). The series is classed as physicochemical. To be noted: post protein A purification. As to the method:
SE HPLC of the purified antibodies was performed by running samples on a TOSOH TSKgel BioAssist G3SWxl column, in 0.2 M Na Phosphate pH 6.8 at 1 mL/min on a Waters Alliance HPLC for 20 min. The column effluent was monitored by absorbance at 280 nm. For a molecule to be considered a therapeutic lead, it is critical that it can be produced in substantial amounts with high purity and high yield. Typically, purification losses are higher, and yields are lower with aggregation-prone proteins. The initial monomer percentage is generally considered a good surrogate indicator of the manufacturability of a protein.

The target in series [2] is T1, recombinant human ECD (human PSMA) (Homo sapiens, UniProt Q04609).
T1 construct: made in house
As to the kind of experiment: SPR (BIACORE 8K) binding of anti-PSMA antibodies to recombinant human PSMA ECD. To be noted: antibody captured on anti-Fc C1 chip, PSMA antigen titrated, 1:1 Langmuir model. As for the experimental part: The binding affinity of purified anti-PSMA antibodies to the recombinant human ECD was determined by surface plasmon resonance (SPR) using a BIACORE 8K instrument. The antibodies were captured on a goat anti-Fc antibody-modified C1 chip and titrated with 3-fold serial dilutions of PSMA antigen spanning concentrations of 1 nM to 11.1 nM. The association and dissociation were monitored for 3 and 15 minutes, respectively, using a flow rate of 50 μL/min. Raw binding data was referenced by subtracting the analyte binding signals from blanks and analyzed using a 1:1 Langmuir binding model using the Biacore Insight evaluation software to obtain the kinetics which were used to calculate the binding affinity.
On the technique in general: Surface plasmon resonance follows binding to a sensor surface in real time, without labels.

Series [3] is described as follows: Thermal stability by nanoDSF (Tm, Tagg). The series is classed as physicochemical. The settings on record: 20° C. to 95° C. at 1.0° C./minute. As to the method:
The thermal stability (conformational stability) of the anti-PSMA antibodies was determined by nanoDSF method using a Prometheus instrument. Measurements were made by loading sample into 24 well capillary from a 384 well sample plate. Duplicate runs were performed. The thermal scans span from 20° C. to 95° C. at a rate of 1.0° C./minute. The data was processed to obtain integrated data and first derivation analysis for 330 nm, 350 nm, Ratio 330/350, and scatter data from which thermal transitions, onset of unfolding, Tm and Tagg were obtained.
“Tm” or “mid-point temperature” is the temperature midpoint of a thermal unfolding curve. It refers to the temperature where 50% of the amino acid sequence is in its native conformation and the other 50% is denatured. A thermal unfolding curve is typically plotted as a function of temperature. Tm is used to measure protein stability. […] The Tm can be readily determined using methods well known to those skilled in the art such as Circular Dichroism Spectroscopy, Differential Scanning Calorimetry, Differential Scanning Fluorimetry (both intrinsic and extrinsic dye based), UV spectroscopy, FT-IR and Isothermal Calorimetry (ITC).
“Tagg” refers to the temperature at which the protein starts to aggregate either through dimerization or oligomerization. The aggregation temperature detects the onset of aggregation, the temperature at which a protein will show a tendency to aggregate. Tagg can be determined by differential scanning calorimetry (DSC), Differential Scanning Fluorimetry (DSF) or by circular dichroism (CD). These techniques can detect small changes in the conformation of the protein and therefore detect the starting point of aggregation. Tagg values can be lower or higher than Tm. In cases where Tagg is lower than Tm, the protein either dimerizes and/or oligomerizes first and then starts unfolding later at higher temperatures than the Tagg. In cases where Tagg is higher than Tm, the protein starts to unfold first and then aggregates at a higher temperature than the Tm. Both events are commonly observed and depend on amino acid composition and protein conformation.
Thermal unfolding parameters, Tm or midpoint temperature of thermal unfolding and Tagg or aggregation temperature of selected anti-PSMA antibodies are shown in Table 23.

In series [4] the test system is C4-2b cells, a cell line with high PSMA expression. Nature of the series: Cytotoxicity of MMAF-conjugated anti-PSMA antibodies on C4-2B cells (Cell Titer Glo, 72h). Format: cell-based, human. The settings on record: MMAF-conjugated antibody, DAR ~4.0, 72h, read-out: Cytotox (IC50) C4-2B, DAR ~4.0. As to the method:
mAbs were conjugated to a monomethyl auristatin F (MMAF) payload in a 96-well format to enable screening for optimal ADC candidates. 220 ug of each mAb (1 mg/mL in dPBS) was mixed with TCEP to a final concentration of 3 mM and incubated at 37° C. for 1r. Reduced mAbs were captured on protein A resin (Protein A HP Multitrap, GE) and washed 3× with 100 mM potassium phosphate containing 2 mM EDTA at pH 7.5 to remove TCEP.
A mixture of maleimide-PEG4-vcPAB-MMAF and N-ethyl maleimide (60:40 molar ratio, 100 uM total in 100 mM potassium phosphate containing 2 mM EDTA at pH 7.5) was prepared and the resin with bound mAb was resuspended in 300 uL of the maleimide mixture. Samples were rotated for 1 hr at RT followed by quenching with N—Ac-L-Cys (2.6 mM final). Resin was washed with dPBS and then bound mAbs were eluted with 100 mM sodium acetate pH 3.5 into 0.2-0.25 volumes of 1 M Tris pH 8.0 to neutralize. ADC concentrations and DAR (panel average of 4.0±0.5) of the eluted ADCs were determined by UV-Vis spectrophotometry at 248 and 280 nm based on previous reports (Hamblett, et. al., (2004) Clinical Cancer Research, 10, 7063-7070; Cruz and Kayser (2009) Cancers 11(6), 870)
C4-2b cells, a cell line with high PSMA expression, were cultured in RPMI1640 containing GlutaMAX, 25 mM HEPES and 10% fetal bovine serum (FBS) and then plated in white 96 well plates at 3000 cells per well (60 uL/well). Twenty four hours after plating, cells were treated with varying concentrations of the ADCs and then incubated at 37 C, 5% CO2. Following 72h of treatment, cell viability was assessed by Cell Titer Glo (Promega), according to manufacturer's instructions. Relative luminescence units (RLU) were detected in an Envision plate reader (Molecular Devices) and then normalized to untreated controls. The concentration at which there was 50% toxicity was determined by fitting the values to a 3-point sigmoidal curve where the top was constrained to 100% and interpolating the X-value at Y=50%.
(In general: ATP-based viability assays read luminescence as a measure of living cells.)

Usually IC50 stands for the concentration that gives 50% inhibition.

T1 sequence (Q04609 with tags, fused parts or gaps): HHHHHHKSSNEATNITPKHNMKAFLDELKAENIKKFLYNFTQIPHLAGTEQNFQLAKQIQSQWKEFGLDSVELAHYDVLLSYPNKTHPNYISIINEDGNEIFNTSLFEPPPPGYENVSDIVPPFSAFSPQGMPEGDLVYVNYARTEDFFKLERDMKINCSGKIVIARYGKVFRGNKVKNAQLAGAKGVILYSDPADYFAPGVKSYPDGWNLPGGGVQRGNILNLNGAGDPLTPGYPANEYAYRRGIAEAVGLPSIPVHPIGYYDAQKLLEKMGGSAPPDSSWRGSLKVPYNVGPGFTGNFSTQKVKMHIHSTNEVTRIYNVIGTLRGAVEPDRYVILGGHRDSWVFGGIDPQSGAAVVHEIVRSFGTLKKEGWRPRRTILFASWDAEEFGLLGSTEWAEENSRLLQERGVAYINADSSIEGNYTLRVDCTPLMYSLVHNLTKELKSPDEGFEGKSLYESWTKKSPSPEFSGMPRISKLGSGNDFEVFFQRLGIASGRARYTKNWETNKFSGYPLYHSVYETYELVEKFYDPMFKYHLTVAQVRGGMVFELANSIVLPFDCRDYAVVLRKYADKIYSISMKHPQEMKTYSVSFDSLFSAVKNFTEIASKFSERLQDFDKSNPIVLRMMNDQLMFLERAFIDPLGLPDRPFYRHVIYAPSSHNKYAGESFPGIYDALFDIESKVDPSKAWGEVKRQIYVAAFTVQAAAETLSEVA

B1: PSMB1088 (antibody)
heavy: EVQLVESGGGVVQPGRSLRLSCAASGFTFSSYDMHWVRQAPGKGLEWVTVISFDGSNKYYVDSVKGRFTISRDNSKNTLYLQMNSLRAEDTAVYYCARTYYDILTGYSHYSYGMDVWGQGTTVTVSS[human IgG1 constant region not given here]
light: EIVMTQSPSSLSASVGDRVTITCRASQGISNYLAWYQQKPGKVPKLLIYATSTLQSGVPSRFSGSGSGTDFILTISSLQPEDVANYYCQKYNSAPFTFGPGTKVEIKRTVAAPSVFIFPPSDEQLKSGTASVVCLLNNFYPREAKVQWKVDNALQSGNSQESVTEQDSKDSTYSLSSTLTLSKADYEKHKVYACEVTHQGLSSPVTKSFNRGEC
B1: the “SEC (% monomer post protein A)” value in series [1] was 96.4%. Besides, in series [2], the Koff was 2.85e-05 s⁻¹ and the Kon is 29400 M⁻¹ s⁻¹. In series [3], the “Fab Tm” value was 75.9 °C and the Tagg came to 76.7 °C. Besides, the IC50 in series [4] turned out to be 0.067 nM.

B2: PSMB1098 (antibody)
heavy: QVQLVESGGGVVQPGRSLRLSCAASGFTFSTYGMHWVRQAPGKGLEWVAFISYDGSNKYYADSVKGRFTISRDNSKHTLYLQMNSLRAEDTAVYYCAGRDNLRFLEWFMDVWGQGTTVTVSS[human IgG1 constant region not given here]
light: EIVMTQSPATLSVSPGERATLSCRASQSVRSNLAWYQQKPGQAPRLLIYGASTRATGIPARFSGSGSGTEFTLTISSLQSEDFAVYYCHQYNDWPPYTFGQGTKVEIKRTVAAPSVFIFPPSDEQLKSGTASVVCLLNNFYPREAKVQWKVDNALQSGNSQESVTEQDSKDSTYSLSSTLTLSKADYEKHKVYACEVTHQGLSSPVTKSFNRGEC
B2: the “SEC (% monomer post protein A)” value in series [1] came to 96.4%. In addition, in series [2], the Koff is 2.85e-05 s⁻¹ and the Kon was 52700 M⁻¹ s⁻¹. In series [3], the “Fab Tm” value is 77.7 °C and the Tagg is 77.8 °C. Moreover, the IC50 in series [4] turned out to be 0.0564 nM.
